# Over roughly 81,000 sequences, “one-hybrid fitness for binding NBS DNA” has its median near -0.1; the highest 2% begin near 0.36. Some of the results follow.
# B1: Caulobacter ParB omega fusion; a variant is named by its letters at X, in order, B8GW30 (parent)
# chain: MESVVVGEPGMSEGRRGLGRGLSALLGEVDAAPAQAPGEQLGGSREAPIEILQRNPDQPRRTFREEDLEDLSNSIREKGVLQPILVRPSPDTAGEYQIVAGERAWRAAQRAGLKTVPIMVRELDDLAVLEIGIIENVQRADLNVLEEALSYKVLMEKFERTQENIAQTIGKSXSHVANXMRLLXLPDEVQSYLVSGELTAXHARAIAAAADPVALAKQIIEGGLSVRETEALARKAPNLSAGKSKGGRPPRVKDTDTQALESDLSSVLGLDVSIDHRGSTGTLTITYATLEQLDDLCNRLTRGI
# Variants of: B1
# Assay: one-hybrid fitness for binding NBS DNA (the Noc-binding site; scaled: cognate 1, non-cognate 0); higher = stronger binding
# Details: with NBS DNA site
# Method in brief: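 Pre- and post-selection plasmids were Illumina-sequenced, three replicate libraries were pooled, and any variant with under 10 reads was removed. The libraries were Caulobacter ParB with four specificity codons randomised, selected in E. coli USO through a HIS3 reporter whose site is 19 bp from the promoter. Cells grew 48 hours at 37°C on M9 without histidine, with 0.1 mM IPTG and 5 mM 3-AT. Fitness is the log change in variant-to-wild-type read ratio, rescaled against cognate and non-cognate.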
row,Variant,one-hybrid fitness for binding NBS DNA
1,RYHY,≤ 0.2
2,PIKV,≤ 0.2
3,RADD,≤ 0.2
4,KSIH,≤ 0.2
5,ARQV,≤ 0.2
6,RNCS,≤ 0.2
7,LQWG,≤ 0.2
8,KPKS,≤ 0.2
9,SPPQ,≤ 0.2
10,PSAH,≤ 0.2
11,QWDT,≤ 0.2
12,CNKV,≤ 0.2
13,SGRC,≤ 0.2
14,PSET,≤ 0.2
15,NEDC,≤ 0.2
16,AQEG,≤ 0.2
17,QGIY,≤ 0.2
18,MQNE,≤ 0.2
19,RRDS,0.58
20,ETSV,≤ 0.2
21,KYCG,≤ 0.2
22,PLII,≤ 0.2
23,APAA,≤ 0.2
24,KREV,≤ 0.2

row,Variant,one-hybrid fitness for binding NBS DNA
1,IDNF,≤ 0.2
2,YCHR,≤ 0.2
3,TTSN,≤ 0.2
4,NWSR,≤ 0.2
5,PLCD,≤ 0.2
6,PPLK,≤ 0.2
7,SFGC,≤ 0.2
8,SCSC,≤ 0.2
9,PSFF,≤ 0.2
10,HMTN,≤ 0.2
11,QKVA,≤ 0.2
12,KVGM,≤ 0.2
13,NFDN,≤ 0.2
14,WACP,≤ 0.2
15,RIYH,≤ 0.2
16,ELPC,≤ 0.2
17,ANPL,≤ 0.2
18,MALM,≤ 0.2
19,LPNY,≤ 0.2
20,HYRN,≤ 0.2
21,MMPS,≤ 0.2
22,GSLR,≤ 0.2
23,IQLW,≤ 0.2
24,TYHY,≤ 0.2

row,Variant,one-hybrid fitness for binding NBS DNA
1,RTEK,≤ 0.2
2,RFAF,≤ 0.2
3,VISC,≤ 0.2
4,IKGT,≤ 0.2
5,TIHA,≤ 0.2
6,GVLF,≤ 0.2
7,EEAS,≤ 0.2
8,LAWR,≤ 0.2
9,DPER,≤ 0.2
10,VGRS,≤ 0.2
11,RDTE,≤ 0.2
12,VHCW,≤ 0.2
13,TTGW,≤ 0.2
14,QVGI,≤ 0.2
15,ADDY,≤ 0.2
16,RKNK,≤ 0.2
17,IVTV,≤ 0.2
18,KPPR,≤ 0.2
19,NDQM,≤ 0.2
20,MSLQ,≤ 0.2
21,IKAG,≤ 0.2
22,NVHC,≤ 0.2
23,LKLM,≤ 0.2
24,FMEL,≤ 0.2

row,Variant,one-hybrid fitness for binding NBS DNA
1,QYFT,0.335
2,MAHK,≤ 0.2
3,SKSM,≤ 0.2
4,KIRE,≤ 0.2
5,SHRI,≤ 0.2
6,MLLT,≤ 0.2
7,HEAY,≤ 0.2
8,GVHD,≤ 0.2
9,INKE,≤ 0.2
10,THMI,≤ 0.2
11,CRLW,≤ 0.2
12,RDDS,≤ 0.2
13,NPRL,≤ 0.2
14,EVSS,≤ 0.2
15,NTIC,≤ 0.2
16,NLHR,≤ 0.2
17,NPDE,≤ 0.2
18,HHSN,≤ 0.2
19,KKKW,≤ 0.2
20,ERKS,≤ 0.2
21,CHET,≤ 0.2
22,GPRY,≤ 0.2
23,SEPE,≤ 0.2
24,LTLN,≤ 0.2

row,Variant,one-hybrid fitness for binding NBS DNA
1,SFSP,≤ 0.2
2,AVLC,≤ 0.2
3,KRQT,0.513
4,YLPQ,≤ 0.2
5,RCTL,≤ 0.2
6,CWNE,≤ 0.2
7,EIAH,≤ 0.2
8,PKVG,≤ 0.2
9,GKHY,≤ 0.2
10,SYRW,≤ 0.2
11,RNKF,≤ 0.2
12,YMWS,≤ 0.2
13,MCPA,≤ 0.2
14,PSVR,≤ 0.2
15,CVSN,≤ 0.2
16,KRPL,≤ 0.2
17,DCPW,≤ 0.2
18,YAIR,≤ 0.2
19,NDHF,≤ 0.2
20,IVRT,≤ 0.2
21,WDLG,≤ 0.2
22,GQYA,≤ 0.2
23,IKIG,≤ 0.2
24,KVHG,≤ 0.2

row,Variant,one-hybrid fitness for binding NBS DNA
1,QSPR,0.27
2,ATRL,≤ 0.2
3,THHK,≤ 0.2
4,RCCD,≤ 0.2
5,REKS,≤ 0.2
6,CVRA,≤ 0.2
7,TKMG,≤ 0.2
8,SRKY,≤ 0.2
9,CVDQ,≤ 0.2
10,KDTG,≤ 0.2
11,QYQT,0.446
12,QYGC,≤ 0.2
13,SSCF,≤ 0.2
14,ISKC,≤ 0.2
15,PGKH,≤ 0.2
16,LRLS,≤ 0.2
17,SKCT,≤ 0.2
18,ASKA,≤ 0.2
19,IQPF,≤ 0.2
20,AWSD,≤ 0.2
21,NNDR,≤ 0.2
22,QAAC,≤ 0.2
23,EAIC,≤ 0.2
24,LDYL,≤ 0.2

row,Variant,one-hybrid fitness for binding NBS DNA
1,GNLM,≤ 0.2
2,ILES,≤ 0.2
3,PWHS,≤ 0.2
4,ASEA,≤ 0.2
5,RYEF,≤ 0.2
6,QFNM,≤ 0.2
7,NWAG,≤ 0.2
8,KNLC,≤ 0.2
9,NNTW,≤ 0.2
10,KPHT,≤ 0.2
11,IVSS,≤ 0.2
12,QLLS,≤ 0.2
13,EFMW,≤ 0.2
14,SLSD,≤ 0.2
15,VVPG,≤ 0.2
16,ITNA,≤ 0.2
17,SCYP,≤ 0.2
18,RLNV,≤ 0.2
19,KMRL,0.213
20,GSLN,≤ 0.2
21,PLLA,≤ 0.2
22,RYPV,≤ 0.2
23,LQAS,≤ 0.2
24,FTDL,≤ 0.2

row,Variant,one-hybrid fitness for binding NBS DNA
1,TVVS,≤ 0.2
2,NTLM,≤ 0.2
3,QKFF,≤ 0.2
4,HFME,≤ 0.2
5,GPRN,≤ 0.2
6,KKDH,≤ 0.2
7,VFNG,≤ 0.2
8,LTCT,≤ 0.2
9,FNHT,≤ 0.2
10,IKCW,≤ 0.2
11,RWCL,≤ 0.2
12,NHSI,≤ 0.2
13,SQSR,≤ 0.2
14,IASS,≤ 0.2
15,VYLR,≤ 0.2
16,MDSV,≤ 0.2
17,PTPE,≤ 0.2
18,YCKL,≤ 0.2
19,GAEV,≤ 0.2
20,HRFD,≤ 0.2
21,SLLS,≤ 0.2
22,TEFE,≤ 0.2
23,SMSQ,≤ 0.2
24,WHKR,≤ 0.2

row,Variant,one-hybrid fitness for binding NBS DNA
1,MRSP,≤ 0.2
2,FWRT,≤ 0.2
3,QWKY,≤ 0.2
4,AMFT,≤ 0.2
5,HNRS,≤ 0.2
6,MYVS,≤ 0.2
7,APGK,≤ 0.2
8,TLRV,≤ 0.2
9,LTLE,≤ 0.2
10,PHFL,≤ 0.2
11,KTQE,≤ 0.2
12,HNLP,≤ 0.2
13,KRNW,≤ 0.2
14,YTYS,≤ 0.2
15,CLNL,≤ 0.2
16,GAVS,≤ 0.2
17,DPIS,≤ 0.2
18,DRLY,≤ 0.2
19,NDKG,≤ 0.2
20,KYIG,≤ 0.2
21,SIRL,≤ 0.2
22,HVMC,≤ 0.2
23,SFDD,≤ 0.2
24,CMHK,≤ 0.2

row,Variant,one-hybrid fitness for binding NBS DNA
1,EVAL,≤ 0.2
2,ETVT,≤ 0.2
3,TNQL,≤ 0.2
4,QLCG,≤ 0.2
5,CNKG,≤ 0.2
6,RKNQ,≤ 0.2
7,TFSL,≤ 0.2
8,KTPL,≤ 0.2
9,KICG,≤ 0.2
10,SMVI,≤ 0.2
11,IILT,≤ 0.2
12,GRYC,≤ 0.2
13,PKFG,≤ 0.2
14,AVNT,≤ 0.2
15,ILCC,≤ 0.2
16,MVVV,≤ 0.2
17,YGPS,≤ 0.2
18,RWRV,≤ 0.2
19,TCTC,≤ 0.2
20,GMCV,≤ 0.2
21,RDIV,≤ 0.2
22,DGKN,≤ 0.2
23,QVCL,≤ 0.2
24,CRKG,≤ 0.2

row,Variant,one-hybrid fitness for binding NBS DNA
1,STTR,≤ 0.2
2,LPYD,≤ 0.2
3,ADSW,≤ 0.2
4,SNRA,≤ 0.2
5,RFEE,≤ 0.2
6,RHEG,≤ 0.2
7,TKYL,≤ 0.2
8,PAHH,≤ 0.2
9,PHPD,≤ 0.2
10,VGSM,≤ 0.2
11,SKEK,≤ 0.2
12,HAGS,≤ 0.2
13,HLSW,≤ 0.2
14,GVPY,≤ 0.2
15,MDCE,≤ 0.2
16,RNTQ,≤ 0.2
17,EFPC,≤ 0.2
18,PSRM,≤ 0.2
19,EQQS,≤ 0.2
20,QICR,0.377
21,GERF,≤ 0.2
22,AKRK,≤ 0.2
23,PQKL,≤ 0.2
24,TRGG,≤ 0.2

row,Variant,one-hybrid fitness for binding NBS DNA
1,GILP,≤ 0.2
2,HYAR,≤ 0.2
3,QAHE,≤ 0.2
4,ASNL,≤ 0.2
5,MLDC,≤ 0.2
6,QCRD,0.384
7,LMKG,≤ 0.2
8,YETE,≤ 0.2
9,DHHF,≤ 0.2
10,DLRA,≤ 0.2
11,LSQI,≤ 0.2
12,HNLM,≤ 0.2
13,QWMT,≤ 0.2
14,SDNR,≤ 0.2
15,TSNT,≤ 0.2
16,KSMH,≤ 0.2
17,CGVG,≤ 0.2
18,YVMV,≤ 0.2
19,RSRE,≤ 0.2
20,TLWG,≤ 0.2
21,AVRH,≤ 0.2
22,SAVW,≤ 0.2
23,HTSP,≤ 0.2
24,AYDL,≤ 0.2

row,Variant,one-hybrid fitness for binding NBS DNA
1,RVSF,≤ 0.2
2,PRGW,≤ 0.2
3,WGLN,≤ 0.2
4,RHSK,≤ 0.2
5,DGKQ,≤ 0.2
6,PLQR,≤ 0.2
7,WTQS,≤ 0.2
8,RKIR,0.384
9,NQRS,≤ 0.2
10,VFSS,≤ 0.2
11,YCEG,≤ 0.2
12,HAAG,≤ 0.2
13,PAAW,≤ 0.2
14,LRIN,≤ 0.2
15,WQYR,≤ 0.2
16,LTLY,≤ 0.2
17,DIAS,≤ 0.2
18,TAPS,≤ 0.2
